Measured values reported in publication PMC4336329 (PLoS ONE, 2015).
Out of some 310,000 compounds screened, about 14,000 (4.5%) showed an effect of 50% or more. The effect is printed as a negative number. The list shows a part of the results.

What follows are compounds tested against human ether-à-go-go-related gene (hERG) potassium channel (human, UniProt Q12809) (assay: primary screen, population patch clamp on CHO cells stably expressing hERG).
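Also: peak tail current of the secondary pulse compared with the same well before compound.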

Sequence of human ether-à-go-go-related gene (hERG) potassium channel (Q12809 whole entry, looked up): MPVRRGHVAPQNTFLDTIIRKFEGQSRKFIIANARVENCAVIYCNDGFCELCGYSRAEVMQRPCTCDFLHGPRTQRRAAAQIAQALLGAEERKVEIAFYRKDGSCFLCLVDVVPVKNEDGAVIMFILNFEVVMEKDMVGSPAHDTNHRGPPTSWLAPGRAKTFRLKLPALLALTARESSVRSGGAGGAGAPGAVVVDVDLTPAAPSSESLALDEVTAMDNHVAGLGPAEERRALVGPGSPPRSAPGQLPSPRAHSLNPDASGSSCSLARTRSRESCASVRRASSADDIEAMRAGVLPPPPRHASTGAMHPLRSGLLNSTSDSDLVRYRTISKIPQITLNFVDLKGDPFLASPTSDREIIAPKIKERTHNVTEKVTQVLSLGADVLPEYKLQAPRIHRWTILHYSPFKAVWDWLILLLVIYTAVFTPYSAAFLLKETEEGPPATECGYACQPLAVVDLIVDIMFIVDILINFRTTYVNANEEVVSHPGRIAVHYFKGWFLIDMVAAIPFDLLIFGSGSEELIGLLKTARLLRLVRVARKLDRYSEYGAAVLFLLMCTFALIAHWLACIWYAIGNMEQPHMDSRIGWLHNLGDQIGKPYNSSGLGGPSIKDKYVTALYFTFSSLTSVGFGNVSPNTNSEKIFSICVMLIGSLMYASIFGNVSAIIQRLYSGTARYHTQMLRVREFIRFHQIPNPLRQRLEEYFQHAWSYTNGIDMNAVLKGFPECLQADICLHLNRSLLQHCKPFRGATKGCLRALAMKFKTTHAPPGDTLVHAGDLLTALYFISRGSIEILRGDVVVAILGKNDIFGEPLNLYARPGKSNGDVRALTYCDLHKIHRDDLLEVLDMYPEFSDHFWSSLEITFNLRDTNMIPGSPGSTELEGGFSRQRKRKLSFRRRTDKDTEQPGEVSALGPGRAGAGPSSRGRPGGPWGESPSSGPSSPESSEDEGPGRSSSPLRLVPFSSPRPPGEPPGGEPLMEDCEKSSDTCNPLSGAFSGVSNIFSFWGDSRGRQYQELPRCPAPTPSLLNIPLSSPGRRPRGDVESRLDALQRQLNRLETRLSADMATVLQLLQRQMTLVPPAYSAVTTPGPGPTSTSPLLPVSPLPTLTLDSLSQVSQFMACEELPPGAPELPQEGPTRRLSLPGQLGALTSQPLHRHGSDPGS

Row | SMILES | hERG current change (%, negative = inhibition) at 10uM [%]
1 | CCOc1ccc(NS(=O)(=O)c2ccc3[nH]c(=O)[nH]c3c2)cc1 | 27.4
2 | NC(=O)CC(NC(=O)c1ccccc1)c1ccc(N2CCC(N3CCCC3)CC2)c([N+](=O)[O-])c1 (centres unmarked) | 8.15
3 | N#CC1=C(N)C(C#N)(C#N)[C@H](c2ccncc2)[C@H]2CN(C(=O)OCc3ccccc3)CC=C12 | -0.261
4 | CCOC(=O)c1c(C)[nH]c(C)c1C(=O)COC(=O)c1c(OC)cccc1OC | 1.71
5 | O=C(/C=C/c1ccco1)N1CCC(Cc2ccccc2)CC1 | 4.42
6 | CCN1CCN(Cc2c(O)ccc3c2O/C(=C\c2ccc(C)cc2)C3=O)CC1 | -35.7
7 | CC1(C)CC(=O)C(C=NCCN2CCOCC2)=C(O)C1 | 18.4
8 | O=C(CNC(=O)c1ccccc1F)NCC(c1cccs1)N1CCOCC1 (centres unmarked) | 9.13
9 | CN(C)c1ccc(NC(=O)CCN2C(=O)c3cccc([N+](=O)[O-])c3C2=O)cc1 | 4.59
10 | Cc1ccc(/C=N/NC(=O)c2ccc3nc[nH]c3c2)s1 | 14.1
11 | O=C(C=C1NCCN1)c1ccccc1 | 12.7
12 | CCc1nnc(NS(=O)(=O)c2ccc(NC(=O)c3ccccc3)cc2)s1 | 4.95
13 | CC(C)(C)c1ccc(S(=O)(=O)Nc2ccc(C(=O)N3CCCC3)cc2)cc1 | -61.9
14 | Cc1sc(NC(=O)c2ccccc2)c(C(=O)NC(C)C)c1C | 14.6
15 | C=CCOc1ccc(/C=C\c2nc(O)c([N+](=O)[O-])c(=O)[nH]2)cc1OCC | 14.5
16 | COc1ccc(C2=NN(CCC(=O)NCC3CCCO3)C(=O)CC2)cc1 (centres unmarked) | -0.464
17 | COc1ccccc1C1CCN(Cc2cccc([N+](=O)[O-])c2)CC1 | -49.1
18 | CCC(C)(C(=O)NC1CCCC1)N(C(C)=O)c1ccc(C)cc1 (centres unmarked) | 8.72
19 | COc1ccccc1-n1ccnc1SCC(=O)NC1CCCC1 | 17.6
20 | N#Cc1ccc(OCC(=O)N2CCN(S(=O)(=O)c3ccc(Cl)s3)CC2)cc1 | -69.5
21 | C=CCN1C(=O)/C(=C/c2cccs2)C(=O)NC1=S | 33.1
22 | C#CCOCCOCCOCCNc1nc(N2CCN(C(=O)[C@H](CCCCN)n3cc([C@@H](N)C(C)CC)nn3)CC2)nc(N2CCN(C(=O)[C@H](Cc3ccc(O)cc3)n3cc([C@@H](N)C(C)CC)nn3)CC2)n1.Cl (some centres unmarked) | 15.3
23 | CC(=O)Nc1ccc(S(=O)(=O)NCCSCc2cccc(Cl)c2)cc1 | -1.43
